Data taken from publication PMC4336329 (PLoS ONE, 2015).
Out of some 310,000 compounds screened, about 14,000 (4.5%) showed an effect of 50% or more. The effect is printed as a negative number. The list shows a part of the results.
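Also: peak tail current of the secondary pulse compared with the same well before compound.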

The molecules below were run against human ether-à-go-go-related gene (hERG) potassium channel (human, UniProt Q12809) (assay: primary screen, population patch clamp on CHO cells stably expressing hERG).
Sequence of human ether-à-go-go-related gene (hERG) potassium channel (Q12809 whole entry, looked up): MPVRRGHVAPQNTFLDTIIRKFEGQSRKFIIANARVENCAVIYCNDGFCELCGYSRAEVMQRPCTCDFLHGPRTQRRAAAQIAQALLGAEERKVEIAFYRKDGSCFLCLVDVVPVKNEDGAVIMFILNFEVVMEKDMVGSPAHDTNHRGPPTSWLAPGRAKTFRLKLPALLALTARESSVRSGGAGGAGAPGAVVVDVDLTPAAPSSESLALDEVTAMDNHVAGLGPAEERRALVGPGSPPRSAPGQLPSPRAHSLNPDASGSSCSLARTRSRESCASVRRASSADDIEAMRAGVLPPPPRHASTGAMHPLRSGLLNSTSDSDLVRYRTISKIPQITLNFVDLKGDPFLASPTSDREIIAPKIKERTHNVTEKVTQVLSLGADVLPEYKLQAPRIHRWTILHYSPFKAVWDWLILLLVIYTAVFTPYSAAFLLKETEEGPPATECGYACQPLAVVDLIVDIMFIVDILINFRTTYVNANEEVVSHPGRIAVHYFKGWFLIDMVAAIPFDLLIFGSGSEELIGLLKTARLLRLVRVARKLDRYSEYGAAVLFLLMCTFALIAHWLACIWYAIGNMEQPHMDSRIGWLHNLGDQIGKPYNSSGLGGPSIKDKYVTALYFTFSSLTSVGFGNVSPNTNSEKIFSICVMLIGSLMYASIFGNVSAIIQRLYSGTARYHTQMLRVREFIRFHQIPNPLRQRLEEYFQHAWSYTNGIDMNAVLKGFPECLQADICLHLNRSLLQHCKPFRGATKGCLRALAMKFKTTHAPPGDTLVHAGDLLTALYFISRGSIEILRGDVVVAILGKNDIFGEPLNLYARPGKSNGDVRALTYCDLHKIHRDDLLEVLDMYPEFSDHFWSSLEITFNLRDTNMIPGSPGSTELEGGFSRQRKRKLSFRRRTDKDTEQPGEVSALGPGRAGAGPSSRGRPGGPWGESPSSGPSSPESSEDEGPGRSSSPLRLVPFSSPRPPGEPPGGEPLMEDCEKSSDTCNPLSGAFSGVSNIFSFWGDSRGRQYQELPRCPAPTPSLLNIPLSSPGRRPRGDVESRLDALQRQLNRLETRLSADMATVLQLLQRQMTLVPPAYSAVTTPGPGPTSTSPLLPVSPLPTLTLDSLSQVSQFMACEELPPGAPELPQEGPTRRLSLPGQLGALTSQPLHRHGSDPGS
With `CCO[C@H]1OC(C(=O)NC2CC2)=C[C@@H](C)[C@@H]1CCCO` the “hERG current change (%, negative = inhibition) at 10uM” value was 8.2%. For `O=C(O)CC1CCS(=O)(=O)C1` (stereo not shown), the “hERG current change (%, negative = inhibition) at 10uM” value was 10.2%. With `C=CCSc1nc(O)c(C2OC(=O)c3c2ccc(OC)c3OC)c(=O)n1-c1ccccc1` (stereo not shown) the “hERG current change (%, negative = inhibition) at 10uM” value was -3.16%. With `COC(=O)c1ccc(C(NC(=O)OCc2ccccc2)/C(C)=C/[C@@H](C)C(=O)NCc2ccc(-c3ccccc3)cc2)cc1` (stereo partly shown) the “hERG current change (%, negative = inhibition) at 10uM” value was -0.583%. In the case of `Cc1csc(NC(=O)C(CC(C)C)NS(=O)(=O)c2ccc3c(c2)oc(=O)n3C)n1` (stereo not shown), the “hERG current change (%, negative = inhibition) at 10uM” value is reported as 4.89%. For `Cc1cc(C)nc(SCc2cc(=O)c(OC(=O)c3cc([N+](=O)[O-])ccc3Cl)co2)n1`, the “hERG current change (%, negative = inhibition) at 10uM” value was -2.51%. For `CC(=O)Nc1cccc(NC(=O)CSc2nnc(NC(=O)C3CC3)s2)c1`, the “hERG current change (%, negative = inhibition) at 10uM” value was 22.6%. In the case of `Cc1cc(NC(=O)CSc2nnc(-c3c[nH]c4ccccc34)n2C)no1`, the “hERG current change (%, negative = inhibition) at 10uM” value is reported as 16.7%. `c1ccc(CCN2CCC(N3CCN(c4ccccc4)CC3)CC2)cc1` was tested, and the “hERG current change (%, negative = inhibition) at 10uM” value was -66.4%. `COc1ccc(CN2CCCC(C(=O)c3ccc(Cl)cc3)C2)cc1Cn1cccn1` (stereo not shown) was tested, and the “hERG current change (%, negative = inhibition) at 10uM” value was -83.9%. `CCN1C(=O)[C@H]2[C@@H](c3ccc(C)cc3)N3C(=O)N(c4ccccc4)C(=O)[C@@]3(C)[C@H]2C1=O` was tested, and the “hERG current change (%, negative = inhibition) at 10uM” value was -0.779%. With `CCN(CC)C(=O)c1sc2nc(-c3cccs3)cc(-c3cccs3)c2c1N` the “hERG current change (%, negative = inhibition) at 10uM” value was -8.14%. With `Cn1c(Cc2ccccc2)nnc1SCC(=O)NC1CCCC1` the “hERG current change (%, negative = inhibition) at 10uM” value was -5.37%. In the case of `CC(=O)Nc1ccc(C(=O)N/N=C/c2cccnc2)cc1`, the “hERG current change (%, negative = inhibition) at 10uM” value is reported as 24.6%. In the case of `COc1cccc(-c2nnc(NC(=O)C(C)C)o2)c1`, the “hERG current change (%, negative = inhibition) at 10uM” value is reported as 4.47%. In the case of `CCN1/C(=C2\SC(=S)N(Cc3ccccc3)C2=O)Sc2ccccc21`, the “hERG current change (%, negative = inhibition) at 10uM” value is reported as 13.6%. In the case of `Cc1ccc(C)c(OCCC(=O)OCC(=O)Nc2ccc(N3CCOCC3)cc2)c1`, the “hERG current change (%, negative = inhibition) at 10uM” value is reported as 19.6%. `Cn1c(OCc2cccnc2)nc2c1c(=O)n(Cc1ccc(F)cc1)c(=O)n2C` was tested, and the “hERG current change (%, negative = inhibition) at 10uM” value was -51.9%. With `COc1ccccc1CCC(=O)N1CCN(S(=O)(=O)c2cc(C(F)(F)F)ccc2Cl)CC1` the “hERG current change (%, negative = inhibition) at 10uM” value was -19.1%. In the case of `CC(/C=C/c1ccccc1)=N/NC(=O)c1cc([N+](=O)[O-])cc([N+](=O)[O-])c1`, the “hERG current change (%, negative = inhibition) at 10uM” value is reported as 8%. `CCC1NC(=S)NC(C)=C1C(=O)c1ccccc1` (stereo not shown) was tested, and the “hERG current change (%, negative = inhibition) at 10uM” value was -5.77%. In the case of `CCOc1ccc(CN2C(=O)c3ccccc3C2=O)cc1C(=O)O`, the “hERG current change (%, negative = inhibition) at 10uM” value is reported as 15.7%. In the case of `COc1ccccc1CN1CCNC(=O)C1CC(=O)NCCCN1CCCC1=O` (stereo not shown), the “hERG current change (%, negative = inhibition) at 10uM” value is reported as -11.8%. `C#CCn1c(=NC(=O)CN2C(=O)CCC2=O)sc2cccc(C)c21` was tested, and the “hERG current change (%, negative = inhibition) at 10uM” value was -30.6%. With `Cc1c(NC(=O)c2cccc(NC(=O)Cc3ccc(Cl)cc3)c2)c(=O)n(-c2ccccc2)n1C` the “hERG current change (%, negative = inhibition) at 10uM” value was -3.02%. With `CN(C)CCCNc1ccc(-c2nn(C)c(=O)c3ccccc23)cc1[N+](=O)[O-]` the “hERG current change (%, negative = inhibition) at 10uM” value was -16%. With `CCN1CCN(Cc2ccc(NC(=O)Nc3ccc(SC)cc3)cc2)CC1` the “hERG current change (%, negative = inhibition) at 10uM” value was -44.5%. With `CSc1nc(N)c(NC(=O)c2ccc(Br)o2)c(=O)[nH]1` the “hERG current change (%, negative = inhibition) at 10uM” value was 21.8%. For `CN(c1ccccc1)S(=O)(=O)c1ccc(C(=O)NCC2CCCO2)cc1` (stereo not shown), the “hERG current change (%, negative = inhibition) at 10uM” value was -8.7%. `CCc1nc(NCc2cccnc2)c2oc3ccccc3c2n1.Cl` was tested, and the “hERG current change (%, negative = inhibition) at 10uM” value was -39.6%. For `c1ccc(CCNc2ncnc3nc[nH]c23)cc1`, the “hERG current change (%, negative = inhibition) at 10uM” value was 15.9%. With `COc1cc(/C=N/NC(=O)c2cccc(C)c2)ccc1OCC(=O)Nc1ccccc1` the “hERG current change (%, negative = inhibition) at 10uM” value was -20.2%. `O=C1c2cnccc2CN1Cc1ccccc1` was tested, and the “hERG current change (%, negative = inhibition) at 10uM” value was -11.6%. For `CCNc1nc(Oc2ccc(=O)n(-c3ccccc3)n2)nc(N(C)C)n1`, the “hERG current change (%, negative = inhibition) at 10uM” value was 8.07%. In the case of `O=C(N/N=C/c1ccc(OCc2cnc(Cl)s2)cc1)c1ccncc1`, the “hERG current change (%, negative = inhibition) at 10uM” value is reported as -3.54%. With `CC1CC(C)CN(C(=O)CCNC(=O)Cn2ccc3ccccc3c2=O)C1` (stereo not shown) the “hERG current change (%, negative = inhibition) at 10uM” value was -5.15%. With `Cc1ccccc1CSCC(Nc1ccc(C(=O)O)cc1[N+](=O)[O-])C(=O)O` (stereo not shown) the “hERG current change (%, negative = inhibition) at 10uM” value was 4.1%. With `COc1ccc2nc(C)cc(N3CCC(C(N)=O)CC3)c2c1` the “hERG current change (%, negative = inhibition) at 10uM” value was -33.7%. `Brc1cc2ccccc2[n+](Cc2ccccc2)c1.[Br-]` was tested, and the “hERG current change (%, negative = inhibition) at 10uM” value was -21.7%. In the case of `O=C(NCc1ccco1)C(=O)NCC1OCCN1S(=O)(=O)c1ccc(Cl)cc1` (stereo not shown), the “hERG current change (%, negative = inhibition) at 10uM” value is reported as -10.1%. With `Cc1ccc(CN(C(=O)c2ccco2)C(C(=O)NC2CCCC2)c2ccc(N3CCOCC3)cc2)cc1` (stereo not shown) the “hERG current change (%, negative = inhibition) at 10uM” value was -29.5%. `O=C1CSCC(=O)N1c1ccccc1` was tested, and the “hERG current change (%, negative = inhibition) at 10uM” value was 6.15%. With `CCOC(=O)NC(=O)/C(C#N)=C\Nc1ccc(Cl)cc1Cl` the “hERG current change (%, negative = inhibition) at 10uM” value was 10.7%.
